Experimental data as given in PubChem BioAssay AID887 (National Center for Advancing Translational Sciences (NCATS), 2007).
Out of some 74,000 compounds screened, about 1,100 (1.5%) were called active. Inconclusive results, whose numbers are uncertain, are shown with a selection of clear calls. Calls come from the whole dose curve; as a rule, active = well fitted inhibition curve with a large enough effect; inconclusive = small, poorly fitted or top-dose-only effect; inactive = no such curve, though single readings can be large or run the other way. No potency is given beside an inconclusive call; the fits are too rough.

Each molecule was assayed against Polyunsaturated fatty acid lipoxygenase ALOX15 (Homo sapiens) (UniProt P16050) (assay: qHTS Assay for Inhibitors of 15-hLO (15-human lipoxygenase)). Details: purified 15hLO-1, xylenol orange hydroperoxide absorbance; activity change, negative = inhibition: at 57.1 µM (top of the series) unless noted.
Chain of UniProt P16050 (P16050 whole entry, looked up): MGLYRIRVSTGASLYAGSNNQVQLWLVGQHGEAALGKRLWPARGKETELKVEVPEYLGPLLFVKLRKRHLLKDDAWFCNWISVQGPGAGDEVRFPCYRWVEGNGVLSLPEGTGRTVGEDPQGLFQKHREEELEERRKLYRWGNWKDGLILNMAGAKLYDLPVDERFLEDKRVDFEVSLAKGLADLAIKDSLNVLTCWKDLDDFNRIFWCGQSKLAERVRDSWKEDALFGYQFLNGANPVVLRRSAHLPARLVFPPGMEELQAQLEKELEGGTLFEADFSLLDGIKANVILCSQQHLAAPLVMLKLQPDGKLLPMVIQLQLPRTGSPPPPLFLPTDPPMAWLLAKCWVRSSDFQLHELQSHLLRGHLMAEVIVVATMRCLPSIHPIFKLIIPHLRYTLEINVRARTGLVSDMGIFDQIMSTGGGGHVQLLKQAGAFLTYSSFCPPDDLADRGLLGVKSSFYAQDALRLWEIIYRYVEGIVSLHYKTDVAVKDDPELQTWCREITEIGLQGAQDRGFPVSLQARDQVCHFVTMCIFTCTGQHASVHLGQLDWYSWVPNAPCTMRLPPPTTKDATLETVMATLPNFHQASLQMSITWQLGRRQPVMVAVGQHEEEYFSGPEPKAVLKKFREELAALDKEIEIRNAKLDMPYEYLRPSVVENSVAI
Summary of the method: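 Compounds were preincubated 15 min at room temperature with 40 nM purified human enzyme (25 mM Hepes pH 7.5, 0.01% Triton X-100); 50 uM arachidonic acid reacted 6 min. Fe-xylenol orange detection, 30 min, absorbance ratio 573/405 nm.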
% is set by controls: 0 for no effect and ±100 for the full control effect; potency is the fitted concentration of half-maximal effect; tags give direction and shape of the fitted curve.
Note: nearly all actives have a fitted effect of over 55% in size.

| SMILES | Potency | activity change, negative = inhibition |
| --- | --- | --- |
| Cc1cc(C)nc(/N=C2\NC(=O)CC(C(=O)O)N2CCc2c[nH]c3ccccc23)n1 (centres undefined) | inconclusive [inhibitor, partial curve] |  |
| Cn1nnnc1SCc1ccc(C(=O)Nc2nccs2)cc1 | inconclusive [inhibitor, full curve] |  |
| COc1ccc(N2CCN(Cc3nc4c(c(=O)n(C)c(=O)n4C)n3CCc3ccccc3)CC2)cc1 | inconclusive [inhibitor, single point] |  |
| COc1cccc(NC(=O)CSc2nc3ccccc3c(=O)n2CCCC(=O)N2CCCC2)c1 | inconclusive [inhibitor, single point] |  |
| O=c1ccc2c(o1)/C(=C/C=C(Cl)Cl)CCC2 | inconclusive [inhibitor, single point] |  |
| COc1ccc2[nH]cc(CCNc3cc(-c4ccccc4C)ncn3)c2c1 | inconclusive [inhibitor, partial curve] |  |
| CC(C)NC(=O)c1nc2ccccc2s1 | inconclusive [inhibitor, single point] |  |
| CCOc1ccc(NC(=O)c2ccncc2)cc1 | inactive |  |
| Oc1ccccc1-c1cc(-c2cccc(F)c2)n[nH]1 | inconclusive [inhibitor, single point] |  |
| Cc1cc(=O)oc2c1ccc1oc(/C(=N/O)c3ccccc3)c(C)c12 | active: 7.94 µM |  |
| Nc1nc2ccc(OC(F)(F)F)cc2s1 | inconclusive [inhibitor, single point] |  |
| C=CCn1c(=N)c(C(=O)NCCCOC)cc2c(=O)n3cccc(C)c3nc21 | active: 1.26 µM |  |
| Oc1ccccc1C(=S)N1CCCCCC1 | inconclusive [inhibitor, partial curve] |  |
| COc1cccc(C(=O)/C=C/Nc2cc(C)ccc2O)c1 | inconclusive [inhibitor, partial curve] |  |
| CCOCCOC(=O)C1=C(C)Nc2ccc(C)cc2S1 | inconclusive [inhibitor, single point] |  |
| CCn1c(SCC(=O)Nc2nc3ccc(C)cc3s2)nc2c(c1=O)SC(C)C2 (centres undefined) | inconclusive [inhibitor, partial curve] |  |
| C(=N\n1cnnc1SCc1ccccc1)/c1ccco1 | inconclusive [inhibitor, single point] |  |
| C=CCn1c(SCC(=O)NCCCC)nc2scc(-c3ccco3)c2c1=O | active: 5.01 µM |  |
| CN(C)c1ccc(Nc2nc(-c3cccnc3)cs2)cc1 |  | inactive: -23% [at 11.4 µM] |
| COc1ccc(C2CC(C(F)(F)F)n3nc(C(=O)Nc4ccc5c(c4)OCO5)cc3N2)cc1 (centres undefined) | inactive |  |
| Cc1noc(C)c1-c1nc(N2CCN(C)CC2)c2ccccc2n1 | inactive |  |
| CCC1c2ccc(C)n2CCN1C(=O)Nc1ccc(F)cc1 (centres undefined) | inconclusive [inhibitor, partial curve] |  |
| COc1nc(OCCNC(=O)Nc2ccccc2)nc(N(C)C)n1 | inactive |  |
| CC(=O)c1cccc(NC(=O)Cc2cccs2)c1 | inconclusive [inhibitor, single point] |  |
| CCc1cc2c(=O)n(Cc3ccco3)c(SCc3c(C)noc3C)nc2s1 | inconclusive [inhibitor, full curve, poor fit] |  |
| CCOC(=O)c1c(C)oc2ccc(NS(=O)(=O)c3ccc4c5c(cccc35)C(=O)N4)cc12 | inconclusive [inhibitor, partial curve] |  |
| CCOC(=O)N1CCN(C(=O)c2cnn3ccccc23)CC1 | inactive |  |

| SMILES | Potency | activity change, negative = inhibition |
| --- | --- | --- |
| Cn1ncc2c(Cl)ncnc21 |  | inactive: 1.38% [at 11.4 µM] |
| Cn1nnnc1Sc1ncnc2scc(-c3ccc(F)cc3)c12 | inactive |  |
| CC(C)(C)SCCNC(=O)CN1C(=O)c2ccccc2S1(=O)=O | inconclusive [inhibitor, single point] |  |
| O=C(CSc1nnnn1Cc1ccccc1)c1ccccc1 | inactive |  |
| CC(=O)CCc1oc2ccc(NC(C)=O)cc2c1-c1ccc(C)o1 | active: 15.8 µM |  |
| O=C(c1ccccc1)N1CCN(c2ccc(NCc3ccc4c(c3)OCO4)cc2)CC1 | active: 25.1 µM |  |
| c1ccc2c(NC3CC3)nc(-c3ccoc3)nc2c1 | inconclusive [inhibitor, single point] |  |
| CCn1c(C)c2c(C)nnc(C)c2c1C | inconclusive [inhibitor, full curve] |  |
| CO[C@@H](NC(N)=O)C(=O)O |  | inactive: 3.82% [at 11.4 µM] |
| NCCNC(=S)S | inconclusive [inhibitor, partial curve] |  |
| N#Cc1c(NC(NC(=O)c2ccco2)C(=O)c2ccccc2)sc2c1CCCC2 (centres undefined) | inconclusive [inhibitor, partial curve] |  |
| O=C(Nc1ccccc1)N1CC2(CCN(C(=O)c3cccc(F)c3)CC2)C1 | inactive |  |
| Cn1cccc1Cc1nnc(SCC(=O)NCC2CCCO2)n1-c1ccc(F)cc1 (centres undefined) | inconclusive [inhibitor, partial curve] |  |
| Cc1oc(-c2cccs2)nc1CS(=O)CC(=O)NCCc1ccccc1 (centres undefined) | inactive |  |
| Cc1cc(N=Cc2c(O)n(-c3ccc4c(c3)OCO4)c(=O)c3ccccc23)ccn1 | inactive |  |
| C=CC(C1=CC(=O)C(OC)=CC1=O)c1ccccc1 (centres undefined) | active: 3.16 µM |  |
| Nc1ccc(C2CCCc3nonc32)c2nonc12 (centres undefined) | active: 7.94 µM |  |
| O=C(O)c1cc2ccccc2c(S(=O)(=O)O)c1O |  | inactive: -2.4% [at 11.4 µM] |
| CC[N+](CC)(CC)CCOc1ccc(/C=C\c2ccccc2)cc1 | active: 15.8 µM |  |
| COc1ccc(NC(=O)C2CCN(S(=O)(=O)c3cccc4cccnc34)CC2)cc1 | inconclusive [inhibitor, single point] |  |
| O=C(c1cc2nc(-c3ccco3)cc(C(F)(F)F)n2n1)N1CCCCCC1 | inconclusive [inhibitor, single point] |  |
| CN(C)CC[C@H](c1ccc(Br)cc1)c1ccccn1 | inactive |  |
| COC(=O)c1cc(=O)c(O)c2c(O)c(O)ccc2c1 | inconclusive [inhibitor, full curve] |  |
| Cc1cc(-c2ccccc2N)n[nH]1 | inactive |  |
| CCOc1ccc(-c2n[nH]c(C)c2-c2ccccc2OC)c(O)c1 | inconclusive [inhibitor, single point] |  |
| Cc1ccc(-n2c(SCC(=O)Nc3nccs3)nc3c(c2=O)SCC3)cc1 | inconclusive [inhibitor, partial curve] |  |
| CC(C)(C)S(=O)(=O)c1c(C(=O)O)cccc1C(=O)O | inconclusive [inhibitor, single point] |  |

| SMILES | Potency | activity change, negative = inhibition |
| --- | --- | --- |
| Cn1c(CN2CCOCC2)nnc1SCC(=O)NCCc1ccccc1 | inactive |  |
| CC(/C=C/c1ccccc1)=N/O | inconclusive [inhibitor, partial curve] |  |
| c1nc(NC2CC2)c2cc(-c3ccoc3)ccc2n1 | inconclusive [inhibitor, single point] |  |
| C[C@](N)(Cc1ccc(O)c(O)c1)C(=O)O | inconclusive [inhibitor, full curve] |  |
| CCOc1ccc2nc(NC(=O)c3ccoc3C)sc2c1 | active: 3.98 µM |  |
| COC(=O)c1cccc(Nc2nc3ccccc3nc2C)c1 | inactive |  |
| CN(C)C(=O)c1ccc(-c2cncnc2NCc2cccs2)cc1 | inconclusive [inhibitor, partial curve] |  |
| CCN(CC(=O)Nc1cccc(OC)c1)C(=O)C1CCN(C(=O)Nc2ccccc2)CC1 | inconclusive [inhibitor, single point] |  |
| COC(=O)c1ccc2c(c1)SC1=C(CCCC1=O)N2 | active: 15.8 µM |  |
| N#CC1=C(N)SC(N)=C(C#N)C1c1c(Cl)cccc1Cl | inconclusive [inhibitor, partial curve] |  |
| COc1ccccc1-c1ccc2ncnc(N(C)Cc3ccco3)c2c1 | inactive |  |
| IC(I)I | inconclusive [inhibitor, partial curve] |  |
| O=C1CN(CC(=O)N2CCOCC2)c2ccccc2O1 | inactive |  |
| CCOC(=O)c1c(N)n(CCOC(=O)c2cccs2)c2nc3ccccc3nc12 | inconclusive [inhibitor, single point] |  |
| FC(F)(F)c1cc(-c2ccccc2)nc(NCC2CCCO2)n1 (centres undefined) | inconclusive [inhibitor, single point] |  |
| O=C(NC1CCCCC1)C(c1ccco1)N(Cc1cccnc1)C(=O)C1COc2ccccc2O1 (centres undefined) | inactive |  |
| O=C(Nc1nnc(C2CCCCC2)s1)c1ccco1 | inactive |  |
| COC(=O)CCC(C)C1CCC2C3C(O)C[C@@H]4CC(O)CC[C@@]4(C)C3CC(O)[C@]12C (some centres undefined) | inactive |  |
| Oc1c(C(O)(c2ccccc2)c2ccc3ccccc3c2O)ccc2ccccc12 |  | inactive: -28.1% [at 11.4 µM] |
| COc1ccc(NC(=O)N2CC[C@@]3(CCCN(C(=O)c4ccco4)C3)C2)cc1 | inactive |  |
| N=C(N)c1ccc(N2CCN(C3CCN(CC(=O)O)CC3)CC2)cc1 | inconclusive [inhibitor, single point] |  |
| Cc1cc(OCCNCCO)cc(C)c1Cl | inactive |  |
| CCOC(=O)c1c(NC(=O)CSc2nnc(CNC(=O)c3ccco3)n2C)sc2c1CCC2 | inconclusive [inhibitor, single point] |  |
| O=P(O)(O)c1ccccc1OCCOCCOc1ccccc1P(=O)(O)O | inactive |  |
| CC1=c2c(oc3cc(O)c(Nc4c(C)cc(O)cc4O)c(C)c23)=CC(=O)C1=Nc1c(C)cc(O)cc1O | inconclusive [inhibitor, partial curve] |  |
